The assay concerns the target isolated recombinant JAK1 kinase domain (Homo sapiens (Human), UniProt P23458). As to the kind of experiment: biochemical.
As to `CN1CCC(N(C)C(=O)c2ccc(Nc3nc4c(C5=CCN(C(=O)C6CCCCC6)CC5)cccn4n3)cc2)CC1` [Example 2-348, 4-[[8-[1-(cyclohexanecarbonyl)-3,6-dihydro-2H-pyridin-4-yl]-[1,2,4]triazolo[1,5-a]pyridin-2-yl]amino]-N-methyl-N-(1-methyl-4-piperidyl)benzamide], the Ki was found to be 4.93 nM.
For `CN1CCC(N(C)C(=O)c2ccc(Nc3nc4c(C5=CCN(C(=O)OCc6ccccc6)CC5)cccn4n3)cc2)CC1` [Example 2-351, benzyl 4-[2-[4-[methyl-(1-methyl-4-piperidyl)carbamoyl]anilino]-[1,2,4]triazolo[1,5-a]pyridin-8-yl]-3,6-dihydro-2H-pyridine-1-carboxylate], the Ki is 1.95 nM.
In the case of `CCOC(=O)N1CC=C(c2cccn3nc(Nc4ccc(C(=O)N5CCC6(CNC6)C5)cc4)nc23)CC1` [Example 2-375, ethyl 4-[2-[4-(2,6-diazaspiro[3.4]octane-6-carbonyl)anilino]-[1,2,4]triazolo[1,5-a]pyridin-8-yl]-3,6-dihydro-2H-pyridine-1-carboxylate], the Ki was 3.18 nM.
For the molecule `O=C(CCC(F)(F)F)N1CC=C(c2cccn3nc(Nc4ccc(C(=O)N5CCC6(CC5)CNCCO6)cc4)nc23)CC1` [Example 2-380, 4,4,4-trifluoro-1-[4-[2-[4-(1-oxa-4,9-diazaspiro[5.5]undecane-9-carbonyl)anilino]-[1,2,4]triazolo[1,5-a]pyridin-8-yl]-3,6-dihydro-2H-pyridin-1-yl]butan-1-one], the Ki turned out to be 1.41 nM.
`CC(C)C(=O)N1CC=C(c2cccn3nc(Nc4ccc(C(=O)N(C)C5CCN(C)CC5)cc4)nc23)CC1` [Example 2-410, N-methyl-N-(1-methyl-4-piperidyl)-4-[[8-[1-(2-methylpropanoyl)-3,6-dihydro-2H-pyridin-4-yl]-[1,2,4]triazolo[1,5-a]pyridin-2-yl]amino]benzamide]: the inhibition constant (Ki) turned out to be 9.12 nM.
For `CCOC(=O)N1CC=C(c2cccn3nc(Nc4ccc(C(=O)N5CCN(CCC#N)CC5)cc4)nc23)CC1` [Example 2-417, ethyl 4-[2-[4-[4-(2-cyanoethyl)piperazine-1-carbonyl]anilino]-[1,2,4]triazolo[1,5-a]pyridin-8-yl]-3,6-dihydro-2H-pyridine-1-carboxylate], the Ki is 1.23 nM.
For `CN1C2COCC1CN(C(=O)c1ccc(Nc3nc4c(C5=CCN(C(=O)CCC(F)(F)F)CC5)cccn4n3)cc1)C2` [Example 2-458, 4,4,4-trifluoro-1-[4-[2-[4-(9-methyl-3-oxa-7,9-diazabicyclo[3.3.1]nonane-7-carbonyl)anilino]-[1,2,4]triazolo[1,5-a]pyridin-8-yl]-3,6-dihydro-2H-pyridin-1-yl]butan-1-one], the inhibitory constant (Ki) turned out to be 1.15 nM.
For the molecule `O=C(CCC(F)(F)F)N1CC=C(c2cccn3nc(Nc4ccc(C(=O)N5CCC(Cc6ccccn6)C5)cc4)nc23)CC1` (stereo not drawn) [Example 2-471, 4,4,4-trifluoro-1-[4-[2-[4-[3-(2-pyridylmethyl)pyrrolidine-1-carbonyl]anilino]-[1,2,4]triazolo[1,5-a]pyridin-8-yl]-3,6-dihydro-2H-pyridin-1-yl]butan-1-one], the Ki came out at 0.83 nM.
As to `CN1CCC(N(C)C(=O)c2ccc(Nc3nc4c(C5=CCN(S(=O)(=O)N6CC(C)(C)C6)CC5)cccn4n3)cc2)CC1` [Example 2-479, 4-[[8-[1-(3,3-dimethylazetidin-1-yl)sulfonyl-3,6-dihydro-2H-pyridin-4-yl]-[1,2,4]triazolo[1,5-a]pyridin-2-yl]amino]-N-methyl-N-(1-methyl-4-piperidyl)benzamide], the Ki came to 18 nM.

For orientation: Ki means a measure of affinity in units of concentration, obtained from inhibition or displacement.

The values above are taken from patent US9873709B2 (priority 2013, dated 2018).
